In PubChem BioAssay AID686978 (National Center for Advancing Translational Sciences (NCATS), 2013):
Among all 420,000 compounds or so, about 64,000 (15%) were called active. The shares of active, inactive and inconclusive entries below differ from those in the screen. Calls come from the whole dose curve; as a rule, active = well fitted inhibition curve with a large enough effect; inconclusive = small, poorly fitted or top-dose-only effect; inactive = flat fitted curve, though single readings scatter. No potency is given beside an inconclusive call; the fits are too rough.

Assay: qHTS for Inhibitors of human tyrosyl-DNA phosphodiesterase 1 (TDP1): qHTS in cells in absence of CPT; note: nearly all actives have a fitted effect of over 55% in size
Conditions: DT40 Tdp1-/- hTDP1 cells, no CPT, ATP luminescence, 48 h; activity change, negative = growth inhibition: at 46.2 µM (top of the series) unless noted
Outline: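 Growth of hTDP1-complemented DT40 Tdp1-knockout cells is measured by ATP luminescence after at least 48 hr compound exposure at 37 °C, with DMSO substituting for the 20 nM CPT used in the parallel screen.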
% is set by controls: 0 for no effect and ±100 for the full control effect; potency is the fitted concentration of half-maximal effect; tags give direction and shape of the fitted curve.

Row | SMILES | Potency | activity change, negative = growth inhibition
1 | CN1CCN(CCCN(Cc2cccs2)C(=S)Nc2ccc(Cl)cc2)CC1 | inconclusive [inhibitor, single point] | 
2 | COc1cc2c(cc1OC)CN(Cc1nc3ccsc3c(=O)[nH]1)CC2 | inconclusive [inhibitor, partial curve] | 
3 | Cc1cccc2c1-c1sc(C(=O)NCCCN3CCN(c4cccc(Cl)c4)CC3)cc1CO2 | inconclusive [inhibitor, single point] | 
4 | CC(C)[C@H](NC(=O)[C@@H]1Cc2c([nH]c3ccccc23)C2c3ccccc3C(=O)N21)C(=O)N1CCC[C@@H]1C(=O)O (stereo partly drawn) | inactive | 
5 | Fc1ccc(-n2ncc3c(Nc4ccc(Oc5ccccc5)cc4)ncnc32)cc1 | inconclusive [inhibitor, partial curve] | 
6 | COc1cccc(Nc2nc(C(N)CCc3ccccc3)cs2)n1 (stereo not drawn) | inconclusive [inhibitor, partial curve, poor fit] | 
7 | Nc1c(Cl)cc2c(c1Oc1ccccc1)C(=O)c1ccccc1C2=O | inactive | 
8 | N#CC1=C(S)N(c2ccccc2)C(c2ccc(-c3ccccc3Cl)o2)NC1=O (stereo not drawn) | inconclusive [inhibitor, single point] | 
9 | CSc1ccc(CN(C)CCc2ccccn2)cc1 | inconclusive [inhibitor, single point] | 
10 | CCc1nc2c(OCC3COc4ccccc4O3)cccn2c1N(C)C(=O)c1cccc(OC)c1 (stereo not drawn) | inconclusive [inhibitor, single point] | 
11 | COc1ccc(-c2noc(C(C)NC(=O)c3ccco3)n2)cc1 (stereo not drawn) | active: 14.6 µM | 
12 | CCN(CC)S(=O)(=O)c1ccc(N2CCCC2)c(NS(=O)(=O)c2ccccc2)c1 | inconclusive [inhibitor, single point] | 
13 | CCC(=O)Nc1ccc(Cl)c(NC(=O)c2ccc([N+](=O)[O-])cc2)c1 | inconclusive [inhibitor, single point] | 
14 | CCCNC(=O)CSc1nc(COc2ccccc2)nc2ccccc12 | inconclusive [inhibitor, single point] | 
15 | CCN1CCN(c2oc(-c3ccc([N+](=O)[O-])cc3)nc2C#N)CC1 |  | inconclusive: -30.1% [inhibitor]
16 | CS(=O)(=O)c1ccccc1C(=O)Nc1cccc(-c2nc3ccccc3o2)c1 | inconclusive [inhibitor, partial curve] | 
17 | C(=N\c1ncnc2sccc12)/NOCc1ccccc1 | active: 9.2 µM | 
18 | CN(C)CCC(Oc1ccccc1OCc1ccccc1)c1ccccc1 (stereo not drawn) | active: 16.4 µM | 
19 | O=C(C[n+]1cc(Br)cc(Br)c1)c1ccc2c(c1)CCCC2 | inconclusive [inhibitor, single point] | 
20 | O=C(O)CCCCn1c(SCc2cc(=O)n3cc(Cl)ccc3n2)nc2ccsc2c1=O | inconclusive [inhibitor, partial curve] | 
21 | Cc1ccc(C(=O)N2CCN(c3ccc(NC(=O)CSc4ccc(Cl)cc4)cc3)CC2)cc1 |  | inconclusive: -36% [inhibitor]
22 | C=C(C)COc1ccc2c(C)c(CC(=O)N3C[C@H]4C[C@@H](C3)c3cccc(=O)n3C4)c(=O)oc2c1C | active: 18.4 µM | 
23 | CCSc1ccccc1-c1nc(-c2ccncc2)no1 | inconclusive [inhibitor, partial curve, poor fit] | 

Row | SMILES | Potency | activity change, negative = growth inhibition
24 | O=C(CSCc1nc2ccccc2[nH]1)Nc1ccccc1 | inactive | 
25 | CC(=O)Nc1cccc(-c2nnc(SCC(=O)c3cc([N+](=O)[O-])ccc3Br)o2)c1 | active: 5.17 µM | 
26 | CCOC(=O)N1CCN(C(=S)NC(=O)c2cc(Br)ccc2Cl)CC1 | inconclusive [inhibitor, single point] | 
27 | CCn1cc(C(=O)OCC(=O)N(C)C2CCS(=O)(=O)C2)c(=O)c2ccc(C)nc21 (stereo not drawn) |  | inconclusive: -18.5% [inhibitor]
28 | O=C(CNC(=O)c1ccccc1F)N/N=C/c1cc(Br)ccc1OCc1ccccc1 | active: 23.1 µM | 
29 | CCOc1ccc(NC(=S)NNC(=O)c2ccc(Br)cc2)cc1 | inconclusive [inhibitor, partial curve] | 
30 | Cc1nn(Cc2c(F)c(F)c(F)c(F)c2F)c(C)c1NC(=O)c1c([N+](=O)[O-])c(C)nn1C | inconclusive [inhibitor, partial curve] | 
31 | Oc1ccccc1N1CCN(C(=S)NCCc2ccccc2)CC1 | inconclusive [inhibitor, single point] | 
32 | CCOc1ccccc1N1CCN(C(=O)c2c(-c3ccccc3Cl)noc2C)CC1 | inconclusive [inhibitor, single point] | 
33 | COc1ccc(CNC(=O)CC2C[C@H](C(=O)N(C(C)C)C(C)C)[C@@]3(C)c4[nH]c5ccccc5c4CCN3C2=O)cc1OC (stereo partly drawn) | inconclusive [inhibitor, single point] | 
34 | CCCCn1c2c(c3ccccc31)CCc1nonc1-2 | inconclusive [inhibitor, partial curve, poor fit] | 
35 | CCCN1CCN(CCCNC(=O)c2cnn(-c3ccc(C)cc3)c2-n2cccc2)CC1 | inactive | 
36 | Cn1c(=O)c2[nH]c(COc3ccc(C(C)(C)C)cc3)nc2n(C)c1=O | active: 4.61 µM | 
37 | S=c1[nH]nc(Cc2ccccc2)n1Cc1ccco1 | inactive | 
38 | CC(/C=N/NC(=O)c1ccc2nc(C)[nH]c2c1)=C\c1ccccc1 | inconclusive [inhibitor, single point] | 
39 | Cc1[nH]c2ccccc2c1/C=N/NC(=O)c1cccs1 | inactive | 
40 | Cc1ccc(C(=O)N2CCC(C(=O)Nc3cccc([N+](=O)[O-])c3)CC2)cc1 | inactive | 
41 | COCCN(C(=O)COC(=O)Cc1cccc(OC)c1)c1c(N)n(CC(C)C)c(=O)[nH]c1=O | inactive | 
42 | O=c1[nH]ncc2c3ccccc3n(Cc3ccccc3)c12 | inconclusive [inhibitor, single point] | 
43 | Cc1nn(-c2ccccc2)c(C)c1NC(=O)CCl | inconclusive [inhibitor, single point] | 
44 | Nc1c(Cl)cc(C2=NCCn3c2c2ccc(C(F)(F)F)cc2[n+]3[O-])cc1Cl | inconclusive [inhibitor, single point] | 
45 | COc1cc(C(=O)Nc2ccccc2N2CCOCC2)ccc1OCc1c(C)noc1C | inconclusive [inhibitor, single point] | 
46 | CCC(=Cc1ccccc1OC)c1ccncc1 |  | inconclusive: -30.1% [inhibitor]

Row | SMILES | Potency | activity change, negative = growth inhibition
47 | Cc1cc(SCc2ccccc2)nc(=O)[nH]1 | inactive | 
48 | CC(C)C(=O)Nc1cccc(S(=O)(=O)NC2=NCCC2)c1 | inactive | 
49 | COc1ccc(OC)c(NC(=O)COC(=O)CCCN2C(=O)c3ccccc3C2=O)c1 | inactive | 
50 | Cc1ccc(C2NNC(=O)C2NC(=O)c2ccccc2)cc1 (stereo not drawn) | inactive | 
51 | CC(Sc1ccc(Cl)cc1)C(=O)Nc1ccc(S(=O)(=O)N2CCOCC2)cc1 (stereo not drawn) | inconclusive [inhibitor, single point] | 
52 | Clc1ccc(-c2c[n+]3c(n2-c2ccccc2)SCC3)cc1 | inconclusive [inhibitor, single point] | 
53 | CCCNS(=O)(=O)c1ccc(CCC(=O)N2CCN(c3ccc(OC)cc3)CC2)cc1 | inconclusive [inhibitor, single point] | 
54 | Cc1ccccc1CNC(=O)C(=O)NCC1OCCCN1S(=O)(=O)c1cccs1 (stereo not drawn) | inactive | 
55 | COc1ccc(N2CCN(C(=O)CNC(=O)Cc3ccc(Cl)cc3)CC2)cc1 | active: 5.8 µM | 
56 | CC1(C)CC(=O)C2=C(C1)OC(N)=C(C#N)C2C1C=CCCC1 (stereo not drawn) | inconclusive [inhibitor, single point] | 
57 | Cc1ccc2[nH]c3c(c2c1)CCCC3NCCO (stereo not drawn) | inconclusive [inhibitor, single point] | 
58 | Cc1ccc(CNC(=O)C2CCN(c3nc4ccc(C)cc4[nH]3)CC2)cc1 | inconclusive [inhibitor, single point] | 
59 | CCc1n[nH]c(=S)n1/N=C/c1ccc(N(C)c2ccccc2)cc1 | inconclusive [inhibitor, single point] | 
60 | COc1ccc(S(=O)(=O)N(C)C[C@H]2Oc3ccc(NS(=O)(=O)c4ccccc4)cc3CC(=O)N([C@H](C)CO)C[C@@H]2C)cc1 | inconclusive [inhibitor, partial curve, poor fit] | 
61 | CC(Sc1nc2ncc(Cl)cc2[nH]1)C(=O)NC1(C#N)CCCCC1 (stereo not drawn) | inconclusive [inhibitor, single point] | 
62 | NC(=O)c1ccccc1OCC(=O)N1CCCC1c1ccc2c(c1)OCCCO2 (stereo not drawn) |  | inconclusive: -34.6% [inhibitor]
63 | O=C(NCC(c1ccco1)N1CCN(c2ccc(F)cc2)CC1)c1ccc2c(c1)OCO2 (stereo not drawn) | inconclusive [inhibitor, partial curve, poor fit] | 
64 | COc1ccc(CC2(C)OC(c3ccc(C)cc3)=NN2C(C)=O)cc1 (stereo not drawn) | inconclusive [inhibitor, single point] | 
65 | COCCCN1C(=O)C(O)=C(C(C)=O)C1c1cccc(F)c1 (stereo not drawn) | inactive | 
66 | O=C(Cn1cnc2c(nnn2Cc2ccccc2F)c1=O)OCc1ccccc1 | inconclusive [inhibitor, single point] | 
67 | COc1ccc(CNC(=O)c2ccc(Sc3ccc(Cl)cc3)c(NC(C)=O)c2)c(OC)c1 | inconclusive [inhibitor, single point] | 
68 | CCN(CC)C(=O)c1cn(CCC#N)nc1-c1ccc(F)cc1 | inconclusive [inhibitor, partial curve, poor fit] | 
